From the supplement of paper PMC9446081
In all, about 39,000 compounds went through this assay and about 220 (0.56%) showed activity. Some of the results follow.

system: Escherichia coli K-12 BW25113; test: relative growth (OD600 normalised to plate interquartile mean) (fraction); higher = less growth inhibition, active = 0.2 or less; conditions: 50 µM; LB; incubation time: overnight (16-24 h)
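Note: static incubation at 37 °C against the wild-type strain, values averaged over two biological replicates.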

**Q.** With CCN1C[C@H]2C[C@H](C(=O)NCC3CC3)[C@@H](C1)O2 as the compound, how does the relative growth read?
**A.** The relative growth was inactive: 0.983.

**Q.** For NC[C@@H](CC(=O)O)c1ccccc1, which relative growth is on record?
**A.** The relative growth was inactive: 1.01.

**Q.** CNc1ccccc1C(=O)O was tested. Which relative growth did it give?
**A.** Its relative growth is inactive: 0.802.

**Q.** How did the relative growth turn out when NCCc1ccc([N+](=O)[O-])cc1 was run?
**A.** The relative growth was inactive: 1.03.

**Q.** C1COC2(CN1)CNC2 was tested. Which relative growth did it give?
**A.** The relative growth was inactive: 0.981.

**Q.** With ClC(Cl)=C(c1ccc(Cl)cc1)c1ccc(Cl)cc1 as the compound, how does the relative growth read?
**A.** The relative growth was inactive: 1.01.

**Q.** For Cl.O=C1CCC2(O)C3Cc4ccc(O)c5c4C2(CCN3CC2CC2)C1O5 (stereo unspecified), which relative growth is on record?
**A.** The relative growth was inactive: 1.03.

**Q.** CCCCCCCCCC(=O)O[C@@H]1[C@@H](C)[C@@]2(O)[C@@H](C=C(CO)C[C@]3(O)C(=O)C(C)=C[C@@H]23)[C@@H]2C(C)(C)[C@]12OC(=O)CCCCCCCCC was tested. Which relative growth did it give?
**A.** Its relative growth is inactive: 1.03.

**Q.** With CN(C)C(=O)[C@@]1(Cc2ccccc2N=[N+]=[N-])N=C(c2ccc(OCCCO)cc2)O[C@H]1c1ccccc1N=[N+]=[N-] as the compound, how does the relative growth read?
**A.** The relative growth was inactive: 1.03.

**Q.** For C[C@H]1CN([C@@H](C)CO)C(=O)CCCn2cc(nn2)CO[C@@H]1CN(C)C(=O)Oc1ccc2ccccc2c1, which relative growth is on record?
**A.** The relative growth was inactive: 1.01.

**Q.** How did the relative growth turn out when NC(Cc1ccccc1)Cc1ccccc1 was run?
**A.** The relative growth was inactive: 0.999.

**Q.** How did the relative growth turn out when CC(C)C[C@@H]1C(=O)N2CCC[C@@H]2[C@]2(O)O[C@@](NC(=O)[C@@H]3C=C4c5cccc6[nH]cc(c56)C[C@@H]4N(C)C3)(C(C)C)C(=O)N12 was run?
**A.** The relative growth was inactive: 1.04.

**Q.** For C1CO[C@H]2[C@@H](C1)CNC[C@H]2N1CCOCC1, which relative growth is on record?
**A.** The relative growth was inactive: 0.967.

**Q.** How did the relative growth turn out when CN1[C@H](CO)[C@H]2c3ccccc3NC[C@H]21 was run?
**A.** Its relative growth is inactive: 0.978.

**Q.** How did the relative growth turn out when N=C(N)NOCCC(N)C(=O)O (stereo unspecified) was run?
**A.** Its relative growth is inactive: 0.832.

**Q.** C1CCC(NC2CCCCC2)CC1 was tested. Which relative growth did it give?
**A.** Its relative growth is inactive: 0.978.

**Q.** How did the relative growth turn out when C[C@]12CC/C(=N\OCCN)C[C@@H]1C(=O)C[C@@H]1[C@@H]2CC[C@]2(C)C(=O)CC[C@@H]12 was run?
**A.** Its relative growth is inactive: 0.987.

**Q.** With CN[C@@H]1[C@@H]2[C@H]3CCN2C[C@H]1O3 as the compound, how does the relative growth read?
**A.** Its relative growth is inactive: 0.989.

**Q.** With NC(=O)c1cc([N+](=O)[O-])cc([N+](=O)[O-])c1 as the compound, how does the relative growth read?
**A.** The relative growth was inactive: 0.926.

**Q.** For Cc1cccc([C@H](CN)N(C)C)c1, which relative growth is on record?
**A.** The relative growth was inactive: 1.01.

**Q.** O[C@H]1[C@H](O)[C@@H](O)CO[C@H]1NCCc1ccccc1 was tested. Which relative growth did it give?
**A.** Its relative growth is inactive: 1.01.

**Q.** [N-]=[N+]=NCc1ccccc1C[C@]1(C(=O)NCCN2CCOCC2)N=C(c2ccc(OCCCO)cc2)O[C@H]1c1ccccc1N=[N+]=[N-] was tested. Which relative growth did it give?
**A.** The relative growth was inactive: 1.01.

**Q.** Which relative growth does the source give for C[C@@H]1CN([C@@H](C)CO)C(=O)CCCn2cc(nn2)CO[C@H]1CN(C)C(=O)Oc1ccc2ccccc2c1 here?
**A.** The relative growth was inactive: 0.989.

**Q.** For O=[N+]([O-])OC1COC2C(O[N+](=O)[O-])COC12 (stereo unspecified), which relative growth is on record?
**A.** The relative growth was inactive: 1.01.

**Q.** COc1cc2c3cc1Oc1c(OC)c(OC)cc4c1C(Cc1cccc(c1)Oc1ccc(c(O)c1)CC3N(C)CC2)N(C)CC4.Cl.Cl (stereo unspecified) was tested. Which relative growth did it give?
**A.** The relative growth was inactive: 1.03.

**Q.** Which relative growth does the source give for CNCC(=O)c1ccc(O)c(O)c1 here?
**A.** The relative growth was inactive: 1.11.

**Q.** Which relative growth does the source give for Nc1ccccc1-c1ccccc1 here?
**A.** Its relative growth is inactive: 0.981.

**Q.** How did the relative growth turn out when COc1ccc(OC(=O)N(C)C[C@@H]2OCc3ccccc3-c3c(n(C)c4ccccc34)C(=O)N([C@@H](C)CO)C[C@@H]2C)cc1 was run?
**A.** The relative growth was inactive: 1.04.

**Q.** Which relative growth does the source give for Oc1cc2c(cc1O)CNCC2 here?
**A.** Its relative growth is inactive: 0.999.

**Q.** Which relative growth does the source give for CN[C@@H](C)Cc1cnccn1 here?
**A.** Its relative growth is inactive: 1.04.

**Q.** How did the relative growth turn out when CC[C@@H](C)C(=O)O[C@H]1[C@H](O)[C@H]2[C@@H](CN3C[C@@H](C)CC[C@@H]3[C@@]2(C)O)[C@H]2C[C@]34O[C@]5(O)[C@@H](OC(=O)[C@@](C)(O)CC)CC[C@@]3(C)[C@@H]5[C@@H](OC(C)=O)[C@@H](OC(C)=O)[C@@H]4[C@@]21O was run?
**A.** Its relative growth is inactive: 1.02.

**Q.** CC(C)[N+](C)(CCC(C(N)=O)(c1ccccc1)c1ccccc1)C(C)C.[I-] was tested. Which relative growth did it give?
**A.** The relative growth was inactive: 1.05.

**Q.** With NC1=NC(=O)N2C[C@@H]12 as the compound, how does the relative growth read?
**A.** The relative growth was inactive: 0.969.

**Q.** For CC1=C2CCC3C4CCC(=O)C4(C)CCC3C2(C)CCC1=O (stereo unspecified), which relative growth is on record?
**A.** Its relative growth is inactive: 1.12.

**Q.** For CN1C(=O)[C@@]23C[C@]4([C@@]56C[C@]78SS[C@](CO)(C(=O)N7[C@@H]5Nc5ccccc56)N(C)C8=O)c5ccccc5N[C@H]4N2C(=O)[C@@]1(CO)SS3, which relative growth is on record?
**A.** The relative growth was inactive: 0.917.

**Q.** How did the relative growth turn out when FCCN1C[C@H]2CCN[C@H]2C1 was run?
**A.** Its relative growth is inactive: 1.01.

**Q.** With Cn1c(CCN)nc2ccccc21 as the compound, how does the relative growth read?
**A.** Its relative growth is inactive: 0.944.

**Q.** With CC12C(=O)OC(=O)C1(C)C1CCC2O1 (stereo unspecified) as the compound, how does the relative growth read?
**A.** Its relative growth is inactive: 0.928.

**Q.** NC(=O)N1C[C@@H]2C[C@H]1CN2 was tested. Which relative growth did it give?
**A.** Its relative growth is inactive: 1.07.

**Q.** For CNC[C@@H](O)c1ccc(O)c(OC)c1, which relative growth is on record?
**A.** The relative growth was inactive: 0.97.

**Q.** Which relative growth does the source give for CC(N)(Cc1ccccc1)c1ccccc1 (stereo unspecified) here?
**A.** Its relative growth is inactive: 0.997.
